What all share (settings): 20 mM HEPES pH 7.9, 100 mM NaCl, 1 mM DTT, 0.2 mg/mL BSA, 0.02% Triton X-100, 2% milk, 0.4 mg/mL salmon testes DNA; 1 h; temperature not stated; high values mean tight binding; double strand, one strand shown; sequences stand for … in GCCTAGCAC…GTGCTAGGTCTTGATTCGCTTGACGCTGCTG
Test [1] concerns the target PU.1 (IVT) (UniProt P17947). The test is described as follows: protein-binding microarray (PBM).
For test [2], the target named is PU.1 (endogenous, THP-1 nuclear extract) (UniProt P17947). The test is described as follows: nuclear extract protein-binding microarray (nextPBM).
Test [3] concerns the target T1, FLI1 (endogenous, THP-1 nuclear extract) (UniProt Q01543).
T1 sequence: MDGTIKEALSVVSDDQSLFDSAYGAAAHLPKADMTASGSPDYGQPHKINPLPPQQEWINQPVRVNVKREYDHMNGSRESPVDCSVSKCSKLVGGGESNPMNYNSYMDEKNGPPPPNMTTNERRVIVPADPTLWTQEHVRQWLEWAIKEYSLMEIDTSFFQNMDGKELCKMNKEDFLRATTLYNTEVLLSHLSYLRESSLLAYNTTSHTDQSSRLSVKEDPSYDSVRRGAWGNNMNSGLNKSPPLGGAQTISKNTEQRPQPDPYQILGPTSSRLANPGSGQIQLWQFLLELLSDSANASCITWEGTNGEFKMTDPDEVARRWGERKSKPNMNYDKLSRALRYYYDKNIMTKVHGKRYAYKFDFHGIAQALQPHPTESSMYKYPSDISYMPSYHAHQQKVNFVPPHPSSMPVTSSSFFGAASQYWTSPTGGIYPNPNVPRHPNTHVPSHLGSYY
Described as above.

The list shows a part of the results. For part of these data: At the low end of the ranking, values are background and their order means little. For part of these data: The protein was read in a cell extract, so binding may be indirect.

In the case of TCTTGGAGGAAGTGGGGGGA, the binding signal in test [1] was 2.85 z-score; in test [2], 2.89 z-score; in test [3], 2.3 z-score.

As to AGTAAGAGGAACTGAATCAC, the binding signal worked out at 4.29 z-score in test [1], 4.09 z-score in test [2] and 1.38 z-score in test [3].

In the case of TGAAGGGGGAAGTGCCGCAC, the binding signal is 4.06 z-score in test [1], 4.48 z-score in test [2] and 1.95 z-score in test [3].

For the sequence AAAATGAGGAAATGTGACAT, the figures for the binding signal in test [1], in test [2] and in test [3] were 5.19 z-score, 4.29 z-score and 2.02 z-score, respectively.

Regarding AAAAAGAGGAAGAGGCGCTT, the binding signal was found to be 5.63 z-score in test [1], 6.28 z-score in test [2] and 2.24 z-score in test [3].

As for ATAAAAAGGAACTGGCTAGA, the binding signal in test [1] amounted to 2.46 z-score; in test [2], 2.5 z-score; in test [3], 0.731 z-score.

Consider AGAGAGGGGAAGTGAGTTGT, for which the binding signal in test [1] stood at 4.31 z-score; in test [2], 4.19 z-score; in test [3] it was 2.32 z-score.

For the sequence AGAAAGAGGAAGTAGATATT, the binding signal in test [1] was 8.76 z-score; in test [2], 7.51 z-score; in test [3] it was 4.9 z-score.

As for CAAATGAGGGACTGATGCGG, the figures for the binding signal in test [1], in test [2] and in test [3] were -0.604 z-score, -0.446 z-score and -0.915 z-score, respectively.

AAAATAAGGAACTGGCTAGA: the results for the binding signal in test [1], in test [2] and in test [3] were 4.36 z-score, 4.59 z-score and 1.35 z-score, respectively.

As to AGAAAGAGGAAATGACTTTA, the results for the binding signal in test [1], in test [2] and in test [3] were 6.15 z-score, 6.41 z-score and 3.36 z-score, respectively.

As for CAGAAAAGGAAGTAAAGACA, the figures for the binding signal in test [1], in test [2] and in test [3] were 3.84 z-score, 3.63 z-score and 2.08 z-score, respectively.

Take ACAAAAAGGAACTGTGCCTC: the values for the binding signal in test [1], in test [2] and in test [3] were 1.97 z-score, 1.7 z-score and 0.761 z-score, respectively.

Consider TTCATGAGGAAGTGCTAGCC, for which the binding signal in test [1] was found to be 4.77 z-score; in test [2], 5.18 z-score; in test [3] it was 2.14 z-score.

CAAAAGGGGAAGTGCTTCAC: the binding signal in test [1] is 7.35 z-score; in test [2], 7.13 z-score; in test [3], 3.92 z-score.

On to CCACAGAGGAAGTGTGGATA, for which the binding signal in test [1] came to 2.83 z-score; in test [2] it was 2.67 z-score; in test [3], 2.59 z-score.

As to TAAAAGAGGAAGTGGATAAA, the binding signal in test [1] turned out to be 7.81 z-score; in test [2] it was 7.14 z-score; in test [3] it was 4.2 z-score.

For GAAAACAGGAAGTCCAATAG, the results for the binding signal in test [1], in test [2] and in test [3] were 7.39 z-score, 6.99 z-score and 4.75 z-score, respectively.

In the case of GGGGAAGGGAAGTGGACAGT, the binding signal in test [1] amounted to 2.63 z-score; in test [2], 2.81 z-score; in test [3] it was 1.85 z-score.

AGTTTGGGGAAGTGATACAT: the binding signal in test [1] was 5.09 z-score; in test [2], 5.46 z-score; in test [3] it was 1.93 z-score.

For CTTTTAAGGAAGTGCTCACT, the binding signal in test [1] stood at 4.92 z-score; in test [2], 5.44 z-score; in test [3], 2.17 z-score.

With GCAAAAGGGAAGTGAAGGGT, the binding signal in test [1] worked out at 4.3 z-score; in test [2], 4.99 z-score; in test [3], 2.16 z-score.

On to GGAGGGAGGAAGTGAGACAG, for which the binding signal came to 3.27 z-score in test [1], 3.42 z-score in test [2] and 2.64 z-score in test [3].

For TTTATGAGGAAGTGGAGGCA, the binding signal in test [1] came out at 5.49 z-score; in test [2] it was 5.94 z-score; in test [3], 2.58 z-score.

Turning to CAAAAAGGGAAGAGGATGCT, the binding signal in test [1] was determined as 3.05 z-score; in test [2], 3.02 z-score; in test [3] it was 1.56 z-score.

For the sequence ACTAAAGGGAAGTGAACCTT, the binding signal in test [1] was 3.84 z-score; in test [2], 4.18 z-score; in test [3], 2.37 z-score.

As to AAAAAGAGGAAGTGGTACAA, the binding signal in test [1] was found to be 8.76 z-score; in test [2], 7.42 z-score; in test [3] it was 4.35 z-score.

For the sequence AGAAAAAGGAACTGCAGACT, the binding signal came to 3.67 z-score in test [1], 3.24 z-score in test [2] and 1.16 z-score in test [3].

GGACTGGGGAAGTGGCCTGG: the values for the binding signal in test [1], in test [2] and in test [3] were 2.43 z-score, 2.96 z-score and 1.21 z-score, respectively.

In the case of AGAAATGGGAAGTGCCATCC, the binding signal worked out at 5.12 z-score in test [1], 5.59 z-score in test [2] and 2.35 z-score in test [3].

As for TTGGAGAGGAAGTGATTCAA, the binding signal in test [1] came to 4.24 z-score; in test [2], 4.19 z-score; in test [3] it was 3.02 z-score.

Regarding TTTTAGAGGAACTGCAAAAA, the binding signal is 2.94 z-score in test [1], 2.73 z-score in test [2] and 0.901 z-score in test [3].

As to TAAGGGAGGAAGTGTTAGGA, the binding signal in test [1] worked out at 3.19 z-score; in test [2], 2.87 z-score; in test [3] it was 2.6 z-score.

AGGAAGAGGAAGTCCCTCAA: the binding signal in test [1] was determined as 5.93 z-score; in test [2] it was 6.54 z-score; in test [3], 3.46 z-score.

As for TCAAACAGGAAGTGTAAATA, the values for the binding signal in test [1], in test [2] and in test [3] were 4.93 z-score, 4.97 z-score and 5.16 z-score, respectively.

With GAAAAGGGGAACTAGAATGA, the values for the binding signal in test [1], in test [2] and in test [3] were 7.02 z-score, 6.88 z-score and 2.5 z-score, respectively.

Regarding CGAAAGGGGAAGTGCTTAAC, the figures for the binding signal in test [1], in test [2] and in test [3] were 7.08 z-score, 7.01 z-score and 3.6 z-score, respectively.

Turning to AGGAAGGGGAAGTGCTGAGC, the results for the binding signal in test [1], in test [2] and in test [3] were 5.36 z-score, 6.25 z-score and 3.08 z-score, respectively.

For the sequence CTTGTGAGGAAGTCAGAGCT, the binding signal in test [1] was 2.77 z-score; in test [2], 2.78 z-score; in test [3], 1.67 z-score.

Consider GAAATGAGGAAGTGAAATTG, for which the binding signal in test [1] came to 8.42 z-score; in test [2], 7.48 z-score; in test [3], 3.74 z-score.

With AGAAGGAGGAAGTTAGGACT, the binding signal in test [1] came out at 6.49 z-score; in test [2] it was 6.43 z-score; in test [3], 2.73 z-score.

CAAATGAGGAAATGGGCTGT: the binding signal in test [1] came to 4.11 z-score; in test [2], 4.57 z-score; in test [3] it was 2.19 z-score.

Turning to GAAAAGAGGAAGTCAGAAAT, the binding signal is 8.35 z-score in test [1], 7.35 z-score in test [2] and 4.02 z-score in test [3].

Consider AAAAAGAGGAAGTGACTTCA, for which the binding signal came out at 8.34 z-score in test [1], 7.35 z-score in test [2] and 4.29 z-score in test [3].

Regarding GACATGAGGAAGTCAGTAAA, the binding signal was 4.25 z-score in test [1], 4.36 z-score in test [2] and 2.04 z-score in test [3].

For the sequence CCTTGGAGGAAGTGAGTGGG, the binding signal in test [1] turned out to be 3.31 z-score; in test [2], 3.25 z-score; in test [3], 2.27 z-score.

In the case of GCTTAGGGGAAGTGGTTCCC, the binding signal in test [1] amounted to 3.79 z-score; in test [2], 4.18 z-score; in test [3] it was 1.98 z-score.

Turning to AAATAGAGGAAATGCTTCAC, the results for the binding signal in test [1], in test [2] and in test [3] were 3.83 z-score, 4.07 z-score and 2.35 z-score, respectively.

As to GGGTGGAGGAAGTGATCCTC, the figures for the binding signal in test [1], in test [2] and in test [3] were 3.03 z-score, 3.47 z-score and 2.29 z-score, respectively.

Take TGAGGAAGGAAGTGGCTGTT: the binding signal in test [1] was 2.51 z-score; in test [2], 2.57 z-score; in test [3], 2.39 z-score.

On to GAAAAGGGGAAGTCAATGTT, for which the values for the binding signal in test [1], in test [2] and in test [3] were 7.87 z-score, 7.55 z-score and 3.61 z-score, respectively.

Take GAGGAGAGGAAGTAAGATTT: the binding signal amounted to 4.49 z-score in test [1], 4.61 z-score in test [2] and 2.81 z-score in test [3].

With CAAAAAGGGAAGTGGATGAT, the binding signal in test [1] amounted to 6.73 z-score; in test [2] it was 6.61 z-score; in test [3], 3.38 z-score.

For the sequence CAGAAAAGGAAGTGAGTTTA, the binding signal in test [1] worked out at 3.96 z-score; in test [2], 3.73 z-score; in test [3], 2.81 z-score.

Take AGAAAAAGGAAGTGGAATTT: the binding signal in test [1] stood at 6.29 z-score; in test [2], 6.7 z-score; in test [3] it was 3.28 z-score.

AAAATAGGGAAGTGGGAAAC: the binding signal in test [1] turned out to be 7.4 z-score; in test [2], 6.79 z-score; in test [3], 3.38 z-score.

Turning to TCCAACAGGAAGTGAATACT, the binding signal was determined as 3.96 z-score in test [1], 4.41 z-score in test [2] and 5.09 z-score in test [3].

ATTTTAGGGAACTACTGTGC: the binding signal in test [1] came to 4.61 z-score; in test [2], 4.74 z-score; in test [3] it was 1.18 z-score.

In the case of AAAAAGAGGAAGAGACACCA, the binding signal was 5.39 z-score in test [1], 6.43 z-score in test [2] and 2.68 z-score in test [3].

For CGAAAGGGGAAGTACTAAAC, the binding signal in test [1] is 6.92 z-score; in test [2], 6.96 z-score; in test [3], 3.49 z-score.

Consider GGTGGGAGGAAGTGTTTTCT, for which the binding signal in test [1] was 4.07 z-score; in test [2], 3.53 z-score; in test [3], 2.57 z-score.

In the case of GCAAAGAGGAAGTGGGGTTG, the binding signal in test [1] is 6.71 z-score; in test [2], 6.77 z-score; in test [3] it was 3.9 z-score.

For GAAAACAGGAAGTCCGATAG, the figures for the binding signal in test [1], in test [2] and in test [3] were 7.15 z-score, 6.81 z-score and 4.6 z-score, respectively.

The values above are taken from PMC6451091.
